{
  "source": "PubChem BioAssay (Tox21)",
  "key": {"[1]": {"assay": "qHTS assay to identify small molecule antagonists of the retinoid-related orphan receptor gamma (ROR-gamma) signaling pathway - cell viability counter screen (AID 1159520); further: nearly all actives have a fitted effect of over 50% in size; further: potency means the concentration at half of the fitted maximal effect", "details": "Tet-on RORgamma CHO cells viability, ATP luminescence, 16 h; series mostly up to 92.4 µM", "method_in_brief": "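Tet-on ROR gamma CHO cells were given compounds for 2 hr, then doxycycline hyclate at 1 uM final, and incubated 16 hr at 37 C. Viability was measured as ATP content by CellTiter-Glo luminescence.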"}, "[2]": {"molecular_target": "Retinoic acid receptor RXR-alpha (Homo sapiens) (UniProt P19793)", "sequence (P19793 whole entry, looked up)": "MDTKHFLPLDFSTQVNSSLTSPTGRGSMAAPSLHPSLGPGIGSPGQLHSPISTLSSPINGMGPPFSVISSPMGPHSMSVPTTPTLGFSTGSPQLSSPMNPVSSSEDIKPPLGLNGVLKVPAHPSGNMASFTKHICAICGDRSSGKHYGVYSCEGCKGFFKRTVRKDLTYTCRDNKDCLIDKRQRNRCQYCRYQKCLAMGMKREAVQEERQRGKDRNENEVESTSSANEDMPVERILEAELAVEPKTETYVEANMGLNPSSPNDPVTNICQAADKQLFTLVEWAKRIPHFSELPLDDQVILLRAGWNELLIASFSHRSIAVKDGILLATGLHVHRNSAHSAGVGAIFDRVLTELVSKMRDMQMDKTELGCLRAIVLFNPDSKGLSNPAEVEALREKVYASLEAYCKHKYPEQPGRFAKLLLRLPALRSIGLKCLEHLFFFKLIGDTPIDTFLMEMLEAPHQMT", "assay": "qHTS assay to identify small molecule agonists of the RXR signaling pathway (AID 1159527; calls by dose curve; further: nearly all actives have a fitted effect of over 35% in size; further: potency means the concentration at half of the fitted maximal effect; on activation: on the % scale 0 is the no-effect control and ±100 the full control effect)", "details": "HEK293T RXRa-UAS-bla, beta-lactamase ratio, 16 h", "method_in_brief": "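Beta-lactamase reporter assay, agonist format. Engineered HEK 293T line, charcoal-stripped FBS at 2%, overnight (16 hr) exposure, fluorescence at 460 and 530 nm after 405 nm excitation.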"}, "[3]": {"molecular_target": "Nuclear receptor ROR-gamma (Homo sapiens) (UniProt P51449)", "assay": "qHTS assay to identify small molecule antagonists of the retinoid-related orphan receptor gamma (ROR-gamma) signaling pathway (AID 1159521; further: nearly all actives have a fitted effect of over 50% in size; further: potency means the concentration at half of the fitted maximal effect)", "details": "Tet-on RORgamma CHO cells, RORE-luciferase, 16 h; series mostly up to 92.4 µM", "method_in_brief": "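CHO cells expressing RORγ under a TET-on promoter, luciferase under RORE control. Dox 1 uM final, 16 h; compounds added 2 h prior. Luminescence decrease measured.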"}, "[4]": {"assay": "qHTS assay to identify small molecule agonists of the RXR signaling pathway - cell viability counter screen (AID 1159529); further: nearly all actives have a fitted effect of over 50% in size; further: potency means the concentration at half of the fitted maximal effect", "details": "RXR-alpha-bla HEK293T viability, CellTiter-Glo, 16 h; series mostly up to 76.8 µM", "method_in_brief": "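Same-well viability check after the LiveBLAzer FRET read: CellTiter-Glo added, luminescence measured after 30 min at room temperature. Reporter HEK 293T cells had been treated with compounds for 16 hr following a 5 hr preincubation.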"}, "[5]": {"assay": "qHTS assay to identify small molecule antagonists of the retinoid acid receptor (RAR) signaling pathway - cell viability counter screen (AID 1159551); further: nearly all actives have a fitted effect of over 35% in size; further: potency means the concentration at half of the fitted maximal effect", "details": "C3RL4 cells viability, ATP luminescence (CellTiter-Glo), 6 h; series mostly up to 92.4 µM", "method_in_brief": "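Cells (C3RL4) are plated, incubated overnight, dosed with compound in DMSO, then given retinol at 1 uM final. After 6 h at 37 C, CellTiter-Glo is added and luminescence read following 30 min at room temperature.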"}, "[6]": {"assay": "qHTS assay to identify small molecule agonists of the AP-1 signaling pathway - cell viability counter screen (AID 1159525; calls by dose curve; further: nearly all actives have a fitted effect of over 55% in size; further: potency means the concentration at half of the fitted maximal effect)", "details": "ME-180 AP-1-bla cells viability, ATP luminescence, 5 h; series mostly up to 76.8 µM", "method_in_brief": "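Same-well cytotoxicity counter screen of the Tox21 10K library in ME-180 cells. The readout is ATP-dependent luminescence after 5 h compound treatment. Data are normalised to DMSO and tetra n-octyl ammonium bromide controls.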"}, "[7]": {"assay": "qHTS assay to identify small molecule agonists of the retinoic acid receptor (RAR) signaling pathway (AID 1159553); further: on the % scale 0 is the no-effect control and ±100 the full control effect", "details": "C3RL4 RARE luciferase reporter, agonist, 6 h; activation: at 73.3 µM (top of the series) unless noted", "method_in_brief": "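Seed C3RL4 reporter cells at 1,000 per well and incubate overnight at 37 C. Add compounds in DMSO, incubate 6 hr. Add luciferase reagent, wait 30 min at room temperature, read luminescence.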"}, "[8]": {"assay": "qHTS assay to identify small molecule agonists of the AP-1 signaling pathway (AID 1159526; calls by dose curve; further: potency means the concentration at half of the fitted maximal effect; on activation: on the % scale 0 is the no-effect control and ±100 the full control effect)", "details": "ME-180 AP-1-bla reporter, beta-lactamase FRET ratio, 5 h; activation: at 76.8 µM (top of the series) unless noted"}, "[9]": {"details": "activation: at 76.8 µM (top of the series) unless noted"}},
  "note": "Where “and” joins values, the source holds several entries; their conditions need not be identical. Equal entries are not always repeated. The shares of active, inactive and inconclusive entries below differ from those in the screen. For part of these data: Potencies beside an inconclusive call are fits to weak or partial responses and may not hold up. A structure can be active in one record and inactive in another. Calls of active or inactive are those of the source. Unless noted, the call rests on the fitted dose curve; in most records, active means well fitted curve in the direction sought with a large enough effect in the repeat runs; inconclusive means weak or mixed curves; inactive means no such curve, though single readings can be large; an effect the other way counts as inactive or inconclusive. Tags describe the fitted curve by direction and shape or compound fluorescence and quenching.",
  "data": [
    {"smiles": "CCOC(=O)c1ccccc1N", "values": [
      {"measurement": "Potency", "setting": "[1]", "result": "inactive"},
      {"measurement": "activation", "setting": "[2]; [9]", "result": "inconclusive: 11.8% and inconclusive: 19.9%"}
    ]},
    {"smiles": "C=CC(C)(CCC=C(C)C)OC(=O)c1ccccc1N", "note": "(stereo not given)", "values": [
      {"measurement": "Potency", "setting": "[3]", "result": "inactive"}
    ]},
    {"smiles": "O=C(O)C1(c2ccc3c(c2)OC[C@H](Cc2ccc(-c4ccccc4)cc2)[C@H]3O)CCCC1", "values": [
      {"measurement": "Potency", "setting": "[1]", "result": "inconclusive: 61.1 µM [cytotoxic]"},
      {"measurement": "Potency", "setting": "[2]; [9]", "result": "inconclusive: 15.5 µM [rising, partial curve]"},
      {"measurement": "Potency", "setting": "[4]", "result": "inconclusive: 19.5 µM [cytotoxic, partial curve]"}
    ]},
    {"smiles": "C[N+](C)(C)CC(=O)O", "values": [
      {"measurement": "Potency", "setting": "[1]", "result": "inactive"},
      {"measurement": "Potency", "setting": "[4]", "result": "inactive"}
    ]},
    {"smiles": "CCC(C)(CC)c1cc(NC(=O)c2c(OC)cccc2OC)on1", "values": [
      {"measurement": "Potency", "setting": "[3]", "result": "inconclusive: 30.7 µM [inhibitor, partial curve] and inconclusive: 66 µM [inhibitor, single point]"}
    ]},
    {"smiles": "CCCCCCCCCC(=O)O[C@H]1CC[C@H]2[C@@H]3CCC4=CC(=O)CC[C@@H]4[C@H]3CC[C@]12C", "values": [
      {"measurement": "Potency", "setting": "[1]", "result": "inconclusive: 33.5 µM [cytotoxic, single point]"},
      {"measurement": "Potency", "setting": "[2]; [9]", "result": "inconclusive: 26.8 µM"},
      {"measurement": "Potency", "setting": "[4]", "result": "inactive"}
    ]},
    {"smiles": "C#CCO", "values": [
      {"measurement": "Potency", "setting": "[3]", "result": "inconclusive: 197 nM [inhibitor, single point]"}
    ]},
    {"smiles": "C[C@]12CC[C@H]3[C@@H](CC[C@@]45O[C@@H]4C(O)=C(C#N)C[C@]35C)[C@@H]1CC[C@@H]2O", "values": [
      {"measurement": "Potency", "setting": "[3]", "result": "inconclusive: 33500 nM [inhibitor, single point]"}
    ]},
    {"smiles": "CC(Cl)CCl", "note": "(stereo not given)", "values": [
      {"measurement": "Potency", "setting": "[3]", "result": "inconclusive: 1080 nM [inhibitor, single point]"}
    ]},
    {"smiles": "Cc1ccccc1", "values": [
      {"measurement": "Potency", "setting": "[3]", "result": "inactive"}
    ]},
    {"smiles": "Cc1cc(O)ccc1Cl", "values": [
      {"measurement": "Potency", "setting": "[1]", "result": "inconclusive: 27.3 µM [cytotoxic, partial curve, poor fit]"},
      {"measurement": "Potency", "setting": "[2]; [9]", "result": "active: 12.3 µM"},
      {"measurement": "Potency", "setting": "[4]", "result": "inactive"}
    ]},
    {"smiles": "CCSC(=O)Cl", "values": [
      {"measurement": "Potency", "setting": "[1]", "result": "inactive"},
      {"measurement": "Potency", "setting": "[2]; [9]", "result": "inactive"},
      {"measurement": "Potency", "setting": "[4]", "result": "inactive"}
    ]},
    {"smiles": "C[C@@H](N)[C@@H](O)c1ccccc1", "values": [
      {"measurement": "Potency", "setting": "[1]", "result": "inactive"},
      {"measurement": "Potency", "setting": "[2]; [9]", "result": "inactive"},
      {"measurement": "Potency", "setting": "[5]", "result": "inactive"}
    ]},
    {"smiles": "CCOP(=O)(CN(CCO)CCO)OCC", "values": [
      {"measurement": "Potency", "setting": "[3]", "result": "inactive"}
    ]},
    {"smiles": "C=CC[C@]1(O)CC[C@H]2[C@@H]3CCC4=CC(=O)CCC4=C3C=C[C@@]21C", "values": [
      {"measurement": "Potency", "setting": "[1]", "result": "inconclusive: 8.41 µM [cytotoxic, partial curve, poor fit]"},
      {"measurement": "Potency", "setting": "[2]; [9]", "result": "inconclusive: 2.39 µM [inhibitor, partial curve]"},
      {"measurement": "Potency", "setting": "[4]", "result": "active: 23.9 µM"},
      {"measurement": "Potency", "setting": "[5]", "result": "active: 33.5 µM"}
    ]},
    {"smiles": "Cc1ccccc1CCl", "values": [
      {"measurement": "Potency", "setting": "[3]", "result": "inactive"},
      {"measurement": "Potency", "setting": "[6]", "result": "inconclusive: 0.0275 µM [rising, full curve, poor fit]"}
    ]},
    {"smiles": "BrCc1ccc(Br)cc1", "values": [
      {"measurement": "Potency", "setting": "[3]", "result": "inactive"}
    ]},
    {"smiles": "CC(Cc1ccc(OCC(=O)O)cc1)NCC(O)c1csc(C(F)(F)F)n1", "note": "(stereo not given)", "values": [
      {"measurement": "Potency", "setting": "[1]", "result": "inactive"},
      {"measurement": "Potency", "setting": "[2]; [9]", "result": "inconclusive: 19.5 µM [activator, partial curve]"}
    ]},
    {"smiles": "Cc1ncc(CNC(=O)N(CCCl)N=O)c(N)n1", "values": [
      {"measurement": "Potency", "setting": "[3]", "result": "inconclusive: 298 nM [inhibitor, single point]"}
    ]},
    {"smiles": "O=[N+]([O-])/N=C1\\NCCN1Cc1ccc(Cl)nc1", "values": [
      {"measurement": "Potency", "setting": "[3]", "result": "inactive"}
    ]},
    {"smiles": "NCCOS(=O)(=O)O", "values": [
      {"measurement": "Potency", "setting": "[1]", "result": "inactive"},
      {"measurement": "Potency", "setting": "[2]; [9]", "result": "inactive"}
    ]},
    {"smiles": "Cl/C=C/CCl", "values": [
      {"measurement": "Potency", "setting": "[1]", "result": "inactive"},
      {"measurement": "Potency", "setting": "[2]; [9]", "result": "inactive"},
      {"measurement": "Potency", "setting": "[7]", "result": "inactive"}
    ]},
    {"smiles": "CCN(CC)C(=O)/C(Cl)=C(\\C)OP(=O)(OC)OC", "values": [
      {"measurement": "Potency", "setting": "[3]", "result": "inactive"},
      {"measurement": "Potency", "setting": "[6]", "result": "inactive"},
      {"measurement": "Potency", "setting": "[8]", "result": "inactive"}
    ]},
    {"smiles": "CO/N=C(/C(=O)OC)c1ccccc1COc1ccccc1C", "values": [
      {"measurement": "Potency", "setting": "[1]", "result": "inconclusive: 2.43 µM [cytotoxic, partial curve, poor fit]"},
      {"measurement": "Potency", "setting": "[2]; [9]", "result": "inconclusive: 11 µM [fluorescent]"},
      {"measurement": "Potency", "setting": "[4]", "result": "inconclusive: 24.5 µM [cytotoxic, partial curve, poor fit]"},
      {"measurement": "Potency", "setting": "[5]", "result": "inconclusive: 15.4 µM [cytotoxic, full curve, poor fit]"}
    ]},
    {"smiles": "COc1cc(CCN)cc(OC)c1OC", "values": [
      {"measurement": "Potency", "setting": "[1]", "result": "inactive"},
      {"measurement": "Potency", "setting": "[7]", "result": "inactive"}
    ]},
    {"smiles": "N[C@@H](Cc1ccc(N(CCCl)CCCl)cc1)C(=O)O", "values": [
      {"measurement": "Potency", "setting": "[1]", "result": "inconclusive: 26.2 µM [cytotoxic] and active: 16.8 µM"},
      {"measurement": "Potency", "setting": "[4]", "result": "inconclusive: 18.7 µM [cytotoxic, partial curve, poor fit]"},
      {"measurement": "Potency", "setting": "[7]", "result": "inactive"}
    ]},
    {"smiles": "COC(C)(C)C", "values": [
      {"measurement": "Potency", "setting": "[3]", "result": "inconclusive: 33.4 nM [inhibitor, full curve, poor fit]"}
    ]},
    {"smiles": "C=CC(C)=O", "values": [
      {"measurement": "Potency", "setting": "[3]", "result": "inconclusive: 8.4 nM [inhibitor, full curve, poor fit]"}
    ]},
    {"smiles": "CCCCOC(=O)c1ccccc1C(=O)OCCCC", "values": [
      {"measurement": "Potency", "setting": "[3]", "result": "inconclusive: 48600 nM [inhibitor, partial curve, poor fit]"},
      {"measurement": "Potency", "setting": "[8]", "result": "inconclusive: 21.9 µM [activator, partial curve] and inconclusive: 21.9 µM [activator]"},
      {"measurement": "activation", "setting": "[2]; [9]", "result": "inconclusive: -23.1%"},
      {"measurement": "activation", "setting": "[2]; at 76.8 µM (top of the series)", "result": "inactive: -16%"}
    ]}
  ]
}
